# Article PMC10726135
# Some of the results follow. At the low end of the ranking the order means little. The protein was read in a cell extract, so binding may be indirect.
# Target: T1, HNF4alpha2 (COS-7 nuclear extract) (UniProt P41235)
# T1 sequence: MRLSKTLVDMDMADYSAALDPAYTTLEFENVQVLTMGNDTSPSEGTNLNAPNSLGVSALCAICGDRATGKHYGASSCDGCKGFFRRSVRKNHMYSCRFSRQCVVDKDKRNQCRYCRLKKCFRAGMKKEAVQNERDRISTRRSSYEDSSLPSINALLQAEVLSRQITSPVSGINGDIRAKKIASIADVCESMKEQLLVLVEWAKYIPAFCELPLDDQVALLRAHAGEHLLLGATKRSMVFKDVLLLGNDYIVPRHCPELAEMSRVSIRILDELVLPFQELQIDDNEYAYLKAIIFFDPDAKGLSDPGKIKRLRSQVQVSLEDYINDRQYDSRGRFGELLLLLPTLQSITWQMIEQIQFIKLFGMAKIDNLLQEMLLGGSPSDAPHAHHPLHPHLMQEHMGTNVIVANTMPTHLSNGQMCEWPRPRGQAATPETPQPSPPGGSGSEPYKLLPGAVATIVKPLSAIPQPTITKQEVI
# Assay: protein-binding microarray
# Details: COS-7 nuclear extract on double-stranded Agilent 4x180k PBM; binding buffer, salt, pH and temperature not given; high values mean tight binding; double strand, one strand shown; sequences stand for … in …GCCTAGGGAGATTAGAGTATCGGTCGA
row,Sequence,binding signal (log2 normalized intensity)
1,TGCCTTGTGTACTCTATCCAGTAGAGGGCA,2.17
2,ATTGGGTACAATGTTCACTATTTGAACTTA,3.35
3,GTTTCCTGAGTTACAGATAAGCAGAAGGTC,1.1
4,ACCTGGACTTGAAGCCAGACTCTGCCATTT,-1.1
5,AAACAACCCAGAGAATGCTAGACAAGGGAA,-1.28
6,AGGTCAATGAAGCTCTTGCTGGTCAAGCTA,-1.15
7,AAACTGTATTGCTCAATGTCAAACACACTG,-1.06
8,TGCCCCTTCACATATTTTGAAAGAAAGAGA,1.68
9,TTCCCCTCCCTTCCACCTTTGCCCTCCAAA,5.76
10,ATCTGGATTTTCAGGTTCCCCAGTGAGGAT,1.69
11,CACAACTGGATGGTGTTTGATCTGATGTAC,1.7
12,GGCAGGGGAGAACTTCCTCCTCCTTGGCTC,-1.13
13,CATTCTCTAATCAGGTCGCTGCCTGCCCCT,2.85
14,TGCGCTGGCCTTGCTTTTCACAGTCGATCT,-1.14
15,GGCAAGCCGACTTACAGGACAAAAGTAAAT,-1.15
16,GGGGCAGGTAAGTACCAATATTTGTTAAGT,1.08
17,TTCCTCCAGCCTGTCGGAATTTGCCCTGTG,4.24
18,GGATGTCTTTTGTTCTAATGAGGCCACTCC,0.797
19,TATTCTATCAGTAGGTACGTTTGTGATACA,1.47
20,TTTGCCCTTTTTAATGTTTCATTAAGCAAG,0.761
21,ACCGGCCAAACTGGTTTCTCCGCTCGGGGA,-1.1
22,AGCTTAAGCATACAGATTACATCTCCAGCT,-1.1
23,GATAAGGAATGAGGAGTCAGAGCGTGTTTC,0.046
24,GACAAAGTGTGCACTTTGCACCTGGGCTGG,4.51

row,Sequence,binding signal (log2 normalized intensity)
1,CCAAAGGAATCTACATAACAAACATTACTA,-1.04
2,CAATTCGCATTTCTGCTTCTTCTCATTCTT,0.808
3,GCTTAAAACGACTGATTCTCAGGCATCTCT,-1.07
4,CCCAGTTCAAAGGTTAAGACTTTGAATCAG,3.31
5,TAATCAGCAAGTTTTATATGAAAACAAAGG,0.544
6,GTTATCTCTTTTGTGATAGAATGAATGGAA,1.84
7,GTTGCCCAGCTATTAAATGGAATACTTGCC,-0.901
8,GTTCGTGCTTCTTGGCCTCTTTGTTTACAC,1.62
9,GCTTCCAAGAATTTAAGAGAACTAGAGATA,-0.553
10,TTTTTTTGTTGTTATCCATTTAAAAAGTAT,1.19
11,TTTTTCAGATCCCTCTGGTGCTGATGTGTT,2.17
12,ATTGCCCCCTAATGGTATTTATTTTAAACC,2.17
13,GCTGGGGTTTTACCAGGCACGCATGGAATT,-0.636
14,AGTTGCTCTGGAGTGCAGGTGGGAGGGGTG,-0.549
15,CCCCGCCTTGGCCTCCCGGAGAGGCCCCGC,2.49
16,GTGGCCGCGAGCACCGCGCGCGCAAAGCGG,-1.23
17,AAAGCAAGTTAAAACAGCAGAGCACGATGA,-1.18
18,ACCAACCTGTCCAAAGGTCATCTGTCACTC,5.7
19,AATAAGCACGTTAGAGAAAAAGCCCAAGAA,-1.04
20,TTTAACTTCTGGGGGCAAGGTACACCATCT,3.1
21,CCTTGCTAATAAATGATTCATTCAGCAAAT,-1.16
22,GTCAGGGAAGACTGATAAGAAAACTAGCAA,-1.2
23,CACCATATGTATGTGAAGCTTGCTGATTAC,1.12
24,ACCAGTCAGGCAAACAACAGGCATCAACTC,-1.08

row,Sequence,binding signal (log2 normalized intensity)
1,TTGTCCTTAGACAGTAACCCTTGAGCTCTG,3.16
2,AAAAGTGACCTTTGCTCCAGTTCCCAATAA,5.9
3,GATAACCGAGGCTGACAGCAGAGAGTTTTC,-1.16
4,CTAGTGTACAGGTGACCTTTGGAATGAACC,7.14
5,AATTAATGTACCCCCGGAAACACGTCCTGT,3.83
6,GTAAATGTACTGTAAACCTAGGTAGTGGAC,1.58
7,TCACCAGGATGGGCCATGACCTTTACCCCC,9.28
8,CACAGGTAATAAGCAGTAGACTAAAACCCA,-1.17
9,CAAATATTGAATGTGTTACACCTGTGTGTA,2.1
10,TTGCCCAGCTGTTCCGTGTTCCAGAGCCTC,-0.815
11,ACCTAGGGGACATTCTTTAGAGGCTGGGTG,0.43
12,AGAGTTGAACCCTTGGGGCTTTTGCAATTT,1.68
13,GGTGTTCCTGAGTAAATCTCACATTCGTTA,0.699
14,AACTAAGAACACAGTCATTTATTCACTTAT,-0.866
15,GTTTTCAAACAATGAGAGGCAACATTCCCA,-0.709
16,TGGGGACAGGGATTAAGTACCGCTCCTCTC,-1.11
17,ATAACAGTGTAAGGACATTGCCCCCTATGT,4.34
18,TTTGTCACATTCCAGACTTTGTACAAGGGC,2.73
19,AAGCAGCAAACCAGATAAGACTATCTCATG,-1.14
20,CTCCGACCCCACGGACTTAAATTGTGCTGT,1.46
21,GAACATTAACTCTCTGTGAGTGTGTTGGCA,1.43
22,AGTCTCCGAGGAACCCAGACTGCATTTTCA,-1.17
23,GCTACAAAGATTGCATGAGATTTTGCTCAA,-1.09
24,TCAGCTGCCACTGGAAGCTCTTCTGTGCCT,-1.09
